# About 16,000 (7.3%) of roughly 220,000 compounds were called active. Inconclusive results, whose numbers are uncertain, are shown with a selection of clear calls. Calls follow the shape of the dose curve; as a rule, active = well fitted inhibition curve with a large enough effect (not every such curve was filed as active); inconclusive = small, poorly fitted or top-dose-only effect, or another doubt; inactive = no such curve, though single readings can be large or run the other way. Potencies of inconclusive entries are left out as doubtful fits.
# Molecular target: Aldehyde dehydrogenase 1A1 (Homo sapiens) (UniProt P00352)
# Experiment: qHTS Assay for Inhibitors of Aldehyde Dehydrogenase 1 (ALDH1A1)
# Details: Purified ALDH1A1, NADH fluorescence, propionaldehyde substrate; series mostly up to 75.3 µM
# Potency is read from the fitted curve at half-maximal effect; tags tell the direction and shape of the fitted curve.
# UniProt P00352, sequence (P00352 whole entry, looked up): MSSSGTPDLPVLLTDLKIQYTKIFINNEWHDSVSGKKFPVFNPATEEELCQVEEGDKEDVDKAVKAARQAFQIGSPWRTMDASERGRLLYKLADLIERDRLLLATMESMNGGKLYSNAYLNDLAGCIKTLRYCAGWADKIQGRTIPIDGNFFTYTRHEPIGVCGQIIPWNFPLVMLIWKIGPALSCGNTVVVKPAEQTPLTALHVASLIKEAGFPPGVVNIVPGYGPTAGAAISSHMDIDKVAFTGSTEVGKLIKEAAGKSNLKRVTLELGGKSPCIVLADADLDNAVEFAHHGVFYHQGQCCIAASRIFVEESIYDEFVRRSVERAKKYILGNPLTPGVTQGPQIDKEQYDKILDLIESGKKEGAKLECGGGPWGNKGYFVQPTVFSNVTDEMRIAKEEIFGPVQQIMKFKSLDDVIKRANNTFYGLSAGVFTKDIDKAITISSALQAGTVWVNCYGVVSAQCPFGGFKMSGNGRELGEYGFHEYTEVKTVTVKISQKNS
row,SMILES,Potency
1,CCOC(=O)NC(=O)CSc1ccc2ccccc2n1,"inconclusive [inhibitor, single point]"
2,Cc1ccccc1N=CC1=C(O)c2ccccc2C1=O,"inconclusive [inhibitor, single point]"
3,COCC(C)N=C1NN=C(c2cccs2)C(CC(=O)O)S1 (stereo not given),active: 12.6 µM
4,Cc1nc2nc(N)nn2c(C)c1C/C=C/c1ccccc1,"inconclusive [inhibitor, single point]"
5,CC(=O)NC1C(OC2OC(CC(O)C3OC([N+]4=CCC(=O)NC4=O)C(O)C3O)C(O)C(O)C2NC(=O)/C=C/CCCCCCCCC(C)C)OC(CO)C(O)C1O (stereo not given),inactive
6,O=C1OC(/C=C/c2ccccc2)=NC/1=C/C=C/c1ccccc1,"inconclusive [inhibitor, single point]"
7,CCC(CC)NC(=O)CON=C1c2ccccc2-c2ccccc21,inactive
8,O=C(Nc1ccc(N2CCCC2)cc1)c1ccc(Br)o1,"inconclusive [inhibitor, single point]"
9,Cc1ccc(C(=O)Nc2nc(C)c(C(=O)Nc3ccc4c(c3)CCC4)s2)cc1,"inconclusive [inhibitor, single point]"
10,COc1ccc(CC(=O)NCc2cccs2)cc1,inactive
11,O=c1c(-c2ccc(Cl)cc2)[n+]([O-])c2ccccc2n1O,inactive
12,O=C(/C=C/c1ccccc1)Nc1ccc(C(=O)N2CCCCC2)cc1,"inconclusive [inhibitor, single point]"
13,Cc1ccc(NC(=O)c2cc(-c3ccc(C)o3)nc3ccccc23)cc1,"inconclusive [inhibitor, single point]"
14,CC1(C(=O)N(CC(=O)NC2CCCC2)Cc2ccco2)CC(=O)N=C2C=CC=CN21 (stereo not given),"inconclusive [inhibitor, partial curve]"
15,Cc1ccccc1-n1c(=O)cc(N2CCc3ccccc32)[nH]c1=O,"inconclusive [inhibitor, single point]"
16,COc1cccc(-c2ccc3ncnc(NCc4ccc(OC)cc4OC)c3c2)c1,"inconclusive [inhibitor, single point]"
17,COc1ccc(C(=O)NC(=S)N2CCN(c3ccc([N+](=O)[O-])cc3)CC2)cc1,inactive
18,CC1(CCC#N)N=C(SCCC#N)N(c2ccccc2)C1=O (stereo not given),"inconclusive [inhibitor, single point]"
19,Cc1oc(-c2cccc3ccccc23)nc1CN1CCN(c2ncnc3ccccc23)CC1,"inconclusive [inhibitor, partial curve]"
20,CCCCn1c(NC(=S)Nc2ccccc2)nc2ccccc21,"inconclusive [inhibitor, single point]"
21,C/C(=C\c1ccco1)C1C(C#N)=C(N)OC2=C1C(=O)CC(C)(C)C2 (stereo not given),active: 12.6 µM
22,CCc1[nH]c(=O)[nH]c1C(C)S(=O)(=O)c1ccc(C)cc1 (stereo not given),active: 31.6 µM
23,N#Cc1c(-c2ccco2)ccn(Cc2cccc(F)c2)c1=O,"inconclusive [inhibitor, partial curve]"

row,SMILES,Potency
1,COC(=O)c1ccc(NC(=O)CSc2ccccn2)cc1,"inconclusive [inhibitor, single point]"
2,CCc1ccc(-c2cc(C(=O)Nc3c(C)n(C)n(-c4ccccc4)c3=O)c3ccccc3n2)s1,"inconclusive [inhibitor, single point]"
3,CC(C)NCCCOc1ccc(C(C)(C)c2ccccc2)cc1,"inconclusive [inhibitor, single point]"
4,CC1(C)CC(=O)C(C(c2ccc(F)cc2)C2C(=O)CC(C)(C)CC2=O)C(=O)C1,"inconclusive [inhibitor, single point]"
5,COC(=O)c1ccc(/C=C2\N=C(SC)SC2=O)cc1,"inconclusive [inhibitor, partial curve]"
6,COc1cc(S(=O)(=O)N2CCOCC2)cc(C(=O)c2nccn2C)c1OC,inactive
7,Cc1ccc(C(=O)CC(Nc2ccc(F)cc2)c2ccccc2)cc1 (stereo not given),inactive
8,Cc1c(C(=O)NCCSCc2ccccc2)cccc1[N+](=O)[O-],active: 3.16 µM
9,O=C(CNS(=O)(=O)/C=C/c1ccccc1)OC1CCOC1=O (stereo not given),inactive
10,COc1cc(OC)cc(C(=O)OCn2nnc3ccccc3c2=O)c1,inactive
11,Cn1nc([N+](=O)[O-])nc1Sc1nnc(-c2ccccc2)o1,"inconclusive [inhibitor, single point]"
12,CCOC(=O)c1c(C)[nH]c(C)c1C(=O)COc1ncnc2ccccc12,inactive
13,Cc1ccc(C)c(NC(=S)NNC(=S)Nc2ccc(C(C)C)cc2)c1,"inconclusive [inhibitor, partial curve, poor fit]"
14,CC1C/C(=N/Nc2ccc([N+](=O)[O-])cc2[N+](=O)[O-])CC(C)(C)C1 (stereo not given),"inconclusive [inhibitor, single point]"
15,Cc1cc2c3c(c1)C(C)(c1ccccc1)CC(C)(C)N3C(=O)C21C(C#N)=C(N)OC2=C1C(=O)CC(C)(C)C2 (stereo not given),inactive
16,Cc1nc(OCC(=O)c2ccc(Cl)cc2)c(C#N)c2c1COC(C)(C)C2,"inconclusive [inhibitor, single point]"
17,CCOC(=O)c1[nH]c(C)c(/C(O)=C2\C(=O)C(=O)N(CCCN3CCOCC3)C2c2cccs2)c1C (stereo not given),"inconclusive [inhibitor, single point]"
18,CCN(CC)C(=O)/C(NC(=O)c1ccccc1)=C(/Sc1ncccn1)c1ccccc1,"inconclusive [inhibitor, single point]"
19,O=C(Nc1ncc(C(F)(F)F)cc1Cl)c1ccc(S(=O)(=O)N2CCOCC2)cc1,inactive
20,Cc1nn(-c2ccccc2)c2sc(C(=O)OCc3nnc(-c4ccccc4)o3)cc12,"inconclusive [inhibitor, single point]"
21,Cc1ccc(Cl)c2c1NC(=O)C2(O)CC(=O)c1ccc(F)cc1 (stereo not given),inactive
22,CCC(C)(C)NC(=O)c1ccc(S(=O)(=O)N2CCCCCC2)cc1,inactive
